The supplement of paper PMC11417369
± gives the standard deviation of the averaged measurements. The list shows a part of the results.

These sequences were tested on PfAP2-I AP2 domain 3 (GST-tagged) (assay: gcPBM binding intensity (ln(normalized median fluorescence intensity)); higher = stronger DNA binding).
Method in brief: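 For binding intensity, the highest Masliner-normalised natural-log median intensity across replicate spots of either probe orientation was taken. Protein bound to the array was stained with Alexa488 anti-GST antibody and scanned at 488 nm. The protein, GST-tagged P. falciparum DNA-binding domains from E. coli at about 25 μg on average, had been applied for 1 h to an Agilent 4 × 180k array of primer-extended double-stranded 36-bp intergenic genomic probes and negative controls.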

Sequence | gcPBM binding intensity (ln)
TCCCATTTATTATGGTGTACAATTAATTAAACATAA [XGTACX_site750] | 8.06 ± 0.12
TATATTTATTCCTGTTGTACTTTATATTATTTTTTT [XGTACX_site1415] | 8.14 ± 0.47
CAAAAACATACCTACACACACAATATGTATTTATAA [CACACA_site5862] | 7.82 ± 0.35
AAATGAATATTCATAGTGCAATATATAAATGAAAAT | 11 ± 0.38
TTTAATTATTAGTGTGCACACAACTATGAGTTTTTA [CACACA_site8997] | 9.65 ± 0.28
AATTACATTCAATTCTGTACTAATAGTAATTCAAAA [XGTACX_site7419] | 7.88 ± 0.54
ATTTGCAGTATTTCGGAACACACAAACATAAATATG [CACACA_site8726] | 8.05 ± 0.57
TATAAAAAATTCTTCCTTATTTTATGATATATATAT [TGCATGCA_negctrl_site57] | 8.665 ± 0.078
AAATATATTTCACGCACACACACCCCAAATAAATTT [CACACA_site3820] | 8.49 ± 0.58
TATTCCTATAAAAAAACACACACATATAAATATATA [CACACA_site8727] | 7.58 ± 0.33
AAGTATTTTTTTACATGTACATATATATATATATAT [XGTACX_site5065] | 9.4 ± 0.56
AAATAGATAAGTAGGACACACATATATATATATTAA [CACACA_site1862] | 7.72 ± 0.54
ATATTTCAAAATGAAAGTACATATAAAAATTATACA [XGTACX_site3787] | 7.5 ± 0.35
TTTTTCATATGACACACACACAAAAATAATGTGGAA [CACACA_site7692] | 8.09 ± 0.33
AAATGAACACGAAAGGAAAAAAAAATATATATATAT [CACACA_negctrl_site267] | 9.4 ± 0.16
TCATTTTATTATTCTACACACTTATCTATAATTATA [CACACA_site34] | 8.12 ± 0.65
ATAATTACATAGATTGGTACACATTTTTGATTGTAT [XGTACX_site3802] | 7.71 ± 0.44
GTACAAATGATTAATCCTTTACTTATATATATATAT [XGTACX_negctrl_site138] | 9.06 ± 0.26
TTAAAAATGTGTGTGCGTACATAATATTTCGAAAAA [XGTACX_site8197] | 8.38 ± 0.38
CATTTTTTTTTATAAATACACACGTACGGGTGCATA [CACACA_site1569] | 8.54 ± 0.54
TTCTGGCAAAATAACACACACATATATTTTATATAC [CACACA_site3242] | 8.6 ± 0.57
GAACATTTACGCCCCACACACCTACCAACAAAAAAA [CACACA_site7746] | 8.99 ± 0.014
TTCTTAAAAAAAAATAAAATAAAAAAAAAAATAAAA [CACACA_negctrl_site99] | 7.53 ± 0.42

Sequence | gcPBM binding intensity (ln)
AAAAAAAAAAAAAACACACACACACGCATACAAAAT [CACACA_site6794] | 8.43 ± 0.39
ATATTTTTCTTAAGTACACACTAAATAGAAACTAAA [CACACA_site4191] | 8.08 ± 0.3
ATTAATTATATAATATGTACATATTACAAATATATA [XGTACX_site1478] | 7.79 ± 0.23
TTATATCTTATAAAATGTACATAAAATATATAATAT [XGTACX_site7647] | 7.89 ± 0.12
AATAATATAACAGAACAAAACTAAATATACACATAT [TGCATGCA_negctrl_site31] | 7.93 ± 0.64
TATTTCATAATAAATTGTACGCGTAGAAAACCATGA [XGTACX_site7506] | 8.43 ± 0.23
CTAATTAATGGGTACATACACACATATATACATACA [CACACA_site743] | 8.07 ± 0.2
ATATTAAAATTAAACGCATGCATATATTATAAAAGA [TGCATGCA_site231] | 7.8 ± 0.68
TTCTGTATAACACAAATTTTTTTTTATTCACTCTGT [TGCATGCA_negctrl_site410] | 7.82 ± 0.59
TTTTTATCAAATAAATGTACACATATTAAATGAAAT [XGTACX_site555] | 7.83 ± 0.3
AACACTTCATACACGTGTACAAATATAATATAGACA [XGTACX_site5671] | 8.49 ± 0.16
GGAAATAATATTATTACACACCAAAATGTATAAAAA [CACACA_site4036] | 8.36 ± 0.85
AAAATATTCACGTGTACATATATATATATATATTAT [TGCATGCA_negctrl_site192] | 8.22 ± 0.35
ATATTTAAAAAATGATGTACAAAAATGTAGTCACAC [XGTACX_site6208] | 8.04 ± 0.32
GAAATTAAATGACATACACACTATATTATAGATTTT [CACACA_site7468] | 7.62 ± 0.54
TATTTTAATGAATTCACACATATAATTTATTTTATA [CACACA_site4538] | 7.49 ± 0.6
GACATAAAATTCAAAGTGCATAAATAAAATAAACCC | 10.4 ± 0.2
TTTTTTTTTTTTTTCTGTACAAATTAAATCTACATA [XGTACX_site8285] | 8.15 ± 0.57
AATATATATTAATAAAGTACAGGAAATATTTTTACC [XGTACX_site7052] | 8.13 ± 0.48
AAAATACATAGACACACACACACACGGATATAAATA [CACACA_site7643] | 8.05 ± 0.43
ATATATATATATAAATGTACAGATATATTTTTTATT [XGTACX_site5445] | 9.05 ± 0.22
TTTAATTTGATAGACACATGCACACGTGCAATACTT [TGCATGCA_site777] | 10.95 ± 0.021
TACTAAAAAATATAAACACACATATATTTTACATAT [CACACA_site2042] | 7.59 ± 0.35

Sequence | gcPBM binding intensity (ln)
ATAGTATCTGGTAGCTGTACGAGTCGTAGAGTGTAA [XGTACX_site4936] | 8 ± 0.49
ATATAAAACTAATTTCTTTTTCTCCTTTTATTTTGT [CACACA_negctrl_site1251] | 7.8 ± 0.59
TTTGTAAGAAATAAATGTACAAAAATTAATTTTTAT [XGTACX_site8983] | 7.68 ± 0.54
TGATTAATAATTTTCTTCATACATTAAACATCTTTT [TGCATGCA_negctrl_site342] | 7.31 ± 0.68
TTTTTTTTTTCATTAACACACATAAATATATATATA [CACACA_site5759] | 9.015 ± 0.021
CACTAATAGTGGATTACACACATATATCTGTATTTA [CACACA_site5403] | 8.27 ± 0.45
GAGAAAAATAAATACACACACATAAATAAATACATA [CACACA_site5102] | 7.79 ± 0.61
TATGTATATTTTAATTGTACGTGTATGGTTGTAAAT [XGTACX_site8738] | 8.21 ± 0.33
TTAATGTTATATGTGTGTACATATAAGTTTAGTAAA [XGTACX_site4651] | 7.92 ± 0.25
CAGTAGTTTTTATGGGTGCAAAACATATATATAACA | 10.8 ± 0.6
ATATATATATCAAAATGTACAAAAATAGAATTTAAA [XGTACX_site8292] | 8.64 ± 0.21
AAAATTAAAATATCACGTACGAAGAAAAAATTAAGA [XGTACX_site6437] | 7.86 ± 0.54
TACACCCACCAACACACACACACACTAATAAAAAAA [CACACA_site8060] | 8.15 ± 0.13
CCTTTCCTAGCACATGCACACAAAAAAAAAAAAAAA [CACACA_site8396] | 8.7 ± 0.23
AAACGGCTATTAAAATGTACATGTAAATATATTAAA [XGTACX_site918] | 7.96 ± 0.33
AATACATATGGGTGTACACATTATATATATATATAT [CACACA_site4601] | 9.34 ± 0.36
ATCTTTTTACTTAATACACACACACCCAAAAAAAAA [CACACA_site8221] | 8.59 ± 0.19
CATGAATATTTATACATGCACACTAAAATAAAGAAT [CACACA_site2412] | 8.48 ± 0.74
GAGGGTATAATAAAAGCACACACAAAGATATAAATA [CACACA_site9087] | 8.68 ± 0.18
GAAAATATTACATACACGCACACATTAATATATTTA [CACACA_site2604] | 8.26 ± 0.52
ACATTTTGTAAAGAATGTACATATATATATATATTC [XGTACX_site8004] | 7.79 ± 0.35
TATATATATATATACACACACACACCCCAAAGCGTA [CACACA_site64] | 9.75 ± 0.52
AAAAAATGCGACATGTGTACACATATATATATATAT [XGTACX_site1679] | 9.79 ± 0.46

Sequence | gcPBM binding intensity (ln)
ATTATGAATTTTAATTGTACATTATTATAGAATGTA [XGTACX_site619] | 7.4 ± 0.48
AATAATTCTTAAAGGTGTACAATATGTATATAAGAA [XGTACX_site595] | 8.38 ± 0.32
AGTTATTTTTATATTTCACACACATATACTTTTACA [CACACA_site9357] | 7.98 ± 0.69
AAATTTTTTATTAGTAGTACGCATAAATATATGTAT [XGTACX_site1934] | 7.92 ± 0.22
AAAAATTCTTCCCAAGCATGCGCGCGTAAAATATTT [TGCATGCA_site77] | 7.79 ± 0.67
AAAAAAAAAAGAAAAGGTACACAGAATATATATATA [XGTACX_site6914] | 9.3 ± 0.12
AAAAAAATAAGACACACACACAAAAAAATAAAAATA [CACACA_site6357] | 7.86 ± 0.43
ATTTTCTATATCTTTCAACACACAAATTTTTTTTTC [CACACA_site7918] | 7.91 ± 0.63
TACATCAAACAAGTATGTACATATATATATATATAT [XGTACX_site7415] | 9.3 ± 0.49
AATAAATAGTAGTAGGTGCTACTATATTATATATAT [GTGCAC_site9452] | 8.73 ± 0.59
TATGTAATAATAAACGGTACACTATATTGTATGAAA [XGTACX_site4648] | 7.75 ± 0.78
GCATATGATGAGCATATAATCATAAGAAAAAAAAAA [CACACA_negctrl_site701] | 7.66 ± 0.79
TATATATATATAGATGCATGCAATTACATATAACAA [TGCATGCA_site118] | 9.14 ± 0.057
TTGTGTACATATTAAGTGCATATATATATATATATA | 10 ± 0.47
TATTTTGAAATGGAAAGGATATAGAACTTAAACAAA [CACACA_negctrl_site1530] | 7.75 ± 0.47
AACATACGACAATACGCACACATATAAGTACATATT [CACACA_site8584] | 8.575 ± 0.007
TTTATAAAAAGCATAACACACACATGTCAATATATA [CACACA_site8286] | 7.71 ± 0.52
ATACATTCAAAATATACACACATATATCTATAATAT [CACACA_site6576] | 7.69 ± 0.65
TTTCTTTAGTAGAATGTAAAAAATATAATCTTCTTA [TGCATGCA_negctrl_site298] | 7.13 ± 0.57
TTATGTAGTATAATGAGTACTAAATATAGATATGTT [XGTACX_site6335] | 7.84 ± 0.5
